Measured values published in paper PMC13083723 (Patterns, 2026).
In all, about 5,400 compounds went through this assay and about 190 (3.5%) showed an effect of 50% or more. The list shows a part of the results.

Each molecule was assayed on Vero-E6 (assay: primary screen, phospholipidosis by LipidTOX staining; higher = more effect of the substance). Conditions: 10 µM.
Method in brief: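 Drug-induced phospholipidosis detected with HCS LipidTOX Red reagent in Vero-E6 cells. Compounds tested at 10 μM, with amiodarone (10 μM) as positive control and DMSO (0.1 v/v %) as vehicle.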

SMILES	result_ITMP
NC(CC(F)C(=O)O)C(=O)O (racemic)	-4.91%
N=C(N)Nc1nc(CSCCN/C=N/S(=O)(=O)c2ccc(Br)cc2)cs1	0.59%
CCCCCCC(=O)OC1CC(C)(C)NC(C)(C)C1	0.44%
Oc1cc2c(cc1O)CN(C(=S)NCCc1ccc(Cl)cc1)CCC2	-3.83%
CCCCCC(=O)O[C@]1(C(C)=O)CC[C@H]2[C@@H]3CCC4=CC(=O)CC[C@]4(C)[C@H]3CC[C@@]21C	-1.89%
Cc1c(C)c2c(c(C)c1OC(=O)CCC(=O)O)CC[C@@](C)(CCC[C@H](C)CCC[C@H](C)CCCC(C)C)O2	1.74%
O=C(O[C@@H]1Cc2c(O)cc(O)cc2O[C@@H]1c1ccc(O)c(O)c1)c1cc(O)c(O)c(O)c1	-2.21%
C[C@@H]1C[C@H]2[C@@H]3C[C@H](F)C4=CC(=O)C=C[C@]4(C)[C@@]3(Cl)[C@@H](O)C[C@]2(C)[C@H]1C(=O)COC(=O)C(C)(C)C	-2.11%
COC(=O)N[C@H](C(=O)N1CCC[C@H]1c1ncc(-c2ccc3c(c2)O[C@@H](c2ccccc2)n2c-3cc3cc(-c4cnc([C@@H]5CCCN5C(=O)[C@@H](NC(=O)OC)C(C)C)[nH]4)ccc32)[nH]1)C(C)C	3.24%
COc1c(C)c2c(c(O)c1C/C=C(\C)CCC(=O)O)C(=O)OC2	-0.26%
CSc1ccc([C@H]2CN3CCC[C@H]3c3ccccc32)cc1 (racemic)	14.1%
O=C(O)c1ccc(S(=O)(=O)N(Cl)Cl)cc1	-3.49%
O=[N+]([O-])c1cn2c(n1)OC[C@@H](OCc1ccc(-c3ccc(OC(F)(F)F)cc3)nc1)C2	-1.07%
O=C(Oc1ccccc1C(=O)O)c1ccccc1O	-2.04%
CCCCCNC(=N)N/N=C/c1c[nH]c2ccc(OC)cc12	3.52%
CS(=O)(=O)c1ccc(-c2cnc(N)c(C(=O)Nc3ccccc3)n2)cc1	-11.9%
NS(=O)(=O)c1cc(Cl)c(Cl)c(S(N)(=O)=O)c1	-0.52%
O=C(O)C1=CO[C@@H](O[C@@H]2O[C@H](CO)[C@@H](O)[C@H](O)[C@H]2O)[C@@H]2C(CO)=CC[C@H]12	-3.87%
C[N+]1([O-])C2CCC1CC(OC(=O)C(CO)c1ccccc1)C2 (stereo not drawn)	0.6%
CCN1CCCC(OC(=O)C(c2ccccc2)c2ccccc2)C1 (stereo not drawn)	6.22%
Cc1ccc(Nc2ncc3c(n2)N(C)C(=O)N(c2cc(NC(=O)c4cccc(C(F)(F)F)c4)ccc2C)C3)cn1	-0.23%
CN(C)CCCSC(=N)N	3.38%

SMILES	result_ITMP
O=C(CNC(=O)c1cccc(C(F)(F)F)c1)N[C@@H]1CCN(Cc2ccc(Cl)cc2)C1	12.4%
CCCC(CCC)C(=O)NCc1ccc2c(cnn2-c2ccccc2OC)c1	0.82%
NS(=O)(=O)OC[C@@H]1C[C@@H](n2ccc3c(N[C@H]4CCc5ccccc54)ncnc32)C[C@@H]1O	-0.05%
CN(C)CCOc1ccc(-c2nc(-c3ccncc3)c(-c3ccc4c(c3)CC/C4=N\O)[nH]2)cc1	-2.12%
NCCNCCNCCN	-4.13%
C=CCNC(=O)c1cc([N+](=O)[O-])cc2c(=O)[nH]c(Nc3ccc(Cl)c(Cl)c3)nc12	-1.98%
C[C@H](Cc1cc2c(c(C(N)=O)c1)N(CCCO)CC2)NCCOc1ccccc1OCC(F)(F)F	-1.36%
CC(O)(P(=O)([O-])O)P(=O)([O-])O	-0.98%
Cc1cccc(NC(=O)N[C@@H]2N=C(c3ccccc3)c3ccccc3N(CC(=O)c3ccccc3C)C2=O)c1	-5.95%
C/C(=C\C(=O)Nc1ccccc1C(=O)O)c1ccc2ccccc2c1	-3.63%
O=C(c1ccc(/C=C/c2n[nH]c3ccccc23)cc1)N1CCNCC1	29.6%
Cc1cc(Cl)ccc1OCCCC(=O)NO	-3.77%
O=C(NCCN1CCOCC1)c1ccc(Cl)cc1	-6.19%
O=C(c1ccc(CN2CCOCC2)cc1)N1CCN(C2CC2)CC1	-1.81%
COc1cccc(OC)c1-c1cc(C(=O)N[C@@H](CC(C)C)C(=O)O)nn1-c1ccnc2cc(Cl)ccc12	-4.8%
[2H]C([2H])([2H])C(=O)Nc1c(I)c(C(=O)O)c(I)c(C(=O)NC)c1I	-3.9%
Cc1ccc(-n2sc(=O)n(Cc3ccc(F)cc3)c2=O)cc1	-5.56%
O=[N+]([O-])c1cc(O)c(O)c([N+](=O)[O-])c1	-2.09%
CN1C(=O)OC(C)(C)C1=O	2.55%
CC(=O)CCCCn1c(=O)c2c(ncn2C)n(C)c1=O	-6.36%
COc1cc2c(cc1OCCCN1CCCC1)N=C(N)C21CCC1	-2.04%
Oc1ccnc(S)n1	-2.88%

SMILES	result_ITMP
O=C(O)Cc1cccnc1C(=O)O	-1.68%
COc1ccc(C(=O)/C(Br)=C/C(=O)[O-])cc1	7.96%
C=CCNc1nc(NCC=C)nc(N2CCN(C(c3ccc(F)cc3)c3ccc(F)cc3)CC2)n1	1.15%
OCCN1CCN(CCCN2c3ccccc3C=Cc3ccccc32)CC1	50.3%
CN[C@@H]1C[C@@H](c2ccc(Cl)c(Cl)c2)c2ccccc21	71.1%
COc1cccc(Nc2c(C(N)=O)cnc3c(C)cc(S(=O)(=O)c4cccc(C(=O)N(C)C)c4)cc23)c1	2.11%
C[C@H]1O[C@@H](n2cc(F)c(=O)[nH]c2=O)[C@H](O)[C@@H]1O	-4.17%
CC[C@H](C(=O)N1CCCC[C@H]1C(=O)O[C@H](CCc1ccc(OC)c(OC)c1)c1cccc(OCC(=O)NCCNC(=O)COc2cccc([C@@H](CCc3ccc(OC)c(OC)c3)OC(=O)[C@@H]3CCCCN3C(=O)[C@@H](CC)c3cc(OC)c(OC)c(OC)c3)c2)c1)c1cc(OC)c(OC)c(OC)c1	-7.12%
CC(C)(C)c1nc(-c2cccc(NS(=O)(=O)c3c(F)cccc3F)c2F)c(-c2ccnc(N)n2)s1	3.38%
CC(C)=CCc1c(O)cc(O)c2c(=O)c(O)c(-c3ccc(C(F)(F)F)cc3)oc12	-2.77%
Cc1c(C(=O)Nc2ccc(N3CCC(N4CCOCC4)CC3)c(C#N)c2)cnn1-c1ccc(Cl)cc1	3.85%
N[C@@H](Cc1cc(CP(=O)(O)O)cc(-c2ccccc2Cl)c1)C(=O)O	-0.92%
Nc1ccc(C(=O)[O-])cc1	5.13%
O=C(O)CCCCC(CCSCc1ccccc1)SCc1ccccc1 (stereo not drawn)	-6.39%
Cc1nn(-c2ccccc2)c(C)c1/C=N/N1CCN(Cc2ccccc2)CC1	-2.24%
Nc1ncnc2c1ncn2[C@@H]1O[C@H](CO)[C@@H](O)[C@H]1O	-2.41%
Clc1ccc(CSC(Cn2ccnc2)c2ccc(Cl)cc2Cl)cc1 (stereo not drawn)	-2.27%
O=C(c1ccc(Nc2nccc(-c3cc4ccccc4s3)n2)cc1)N1CCC(N2CCCC2)CC1	-0.03%
C[n+]1cc2c3c(ccc2c2ccc4cc5c(cc4c21)OCO5)OCO3	-11.7%
Nc1nc(=O)c2nc(Br)n([C@@H]3O[C@@H]4COP(=O)([O-])O[C@H]4[C@H]3O)c2[nH]1	-1.41%
C[C@@H](NC(=O)c1ncnc(N)c1Cl)c1ncc(C(=O)Nc2cc(C(F)(F)F)c(Cl)cn2)s1	-1.48%
CN(C)C(=S)SC(=S)N(C)C	-1.56%

SMILES	result_ITMP
CN(c1ccc(NC(=O)Nc2ccccc2)cc1)S(=O)(=O)c1cnn(-c2ccc(F)cc2)c1	1.57%
Cc1cc(C)c(Nc2ccnc(Nc3ccc(C#N)cc3)n2)c(C)c1	32.3%
CN1C(=O)CC(c2ccccc2)C1=O (stereo not drawn)	-6.4%
COc1ccccc1N1CCN(CCN(C(=O)C2CCCCC2)c2ccccn2)CC1	10.5%
Nc1ccn([C@@H]2O[C@H](CO)[C@@H](O)C2(F)F)c(=O)n1	-2.59%
O=C(NCCCN1CCC2(CC1)OCc1ccccc12)[C@H]1CCCN1Cc1ccccc1	35.1%
Fc1ccc(Cl)cc1-c1nc(Nc2ccncc2)c2nccnc2n1	-2.83%
CN(C)CCN(Cc1ccccc1)c1ccccn1	3.36%
CC1CNc2c(cccc2S(=O)(=O)N[C@@H](CCCNC(=N)N)C(=O)N2CC[C@@H](C)C[C@@H]2C(=O)O)C1 (stereo partly drawn)	-1.37%
Clc1cccc(N2CCNCC2)c1	4.14%
O=C(/C=C/c1ccccc1)NC(NC(=S)Nc1cccc2cccnc12)C(Cl)(Cl)Cl (stereo not drawn)	-1.04%
CCCN(CCC)C(=O)Cc1c(-c2ccc(Cl)cc2)nc2ccc(Cl)cn12	0.29%
O=C1Nc2ccccc2C12OCC1(CO2)COC2(OC1)C(=O)Nc1ccccc12 (stereo not drawn)	-0.48%
O=C(CC1CC(c2ccc(F)cc2F)=NO1)N1CCOCC1 (racemic)	-0.02%
Nc1cccc2c1C(=O)N(C1CCC(=O)NC1=O)C2=O (stereo not drawn)	-6.7%
COc1cc(O)c(C(=O)c2ccccc2)cc1S(=O)(=O)O	-6.3%
Cc1ncc(COP(=O)([O-])O)c(CN(CCN(CC(=O)[O-])Cc2c(COP(=O)(O)O)cnc(C)c2[O-])CC(=O)[O-])c1[O-].[Mn+2]	-10.5%
COc1ccc(C(C)(C)C)cc1CN[C@H]1C2CCN(CC2)[C@H]1C(c1ccccc1)c1ccccc1	1.79%
CC(C)(C)c1onc(O)c1CC(N)C(=O)O (stereo not drawn)	-0.91%
COC(=O)C1=C(C)NC(C)=C(C(=O)NCCCN2CCC(c3ccccc3)(c3ccccc3)CC2)C1c1ccc([N+](=O)[O-])cc1 (stereo not drawn)	60.6%
COC1C(OC(=O)NC(=O)CCl)CCC2(CO2)C1C1(C)OC1CC=C(C)C (stereo not drawn)	11.3%
